Results: the BET-seq Pho4 binding data (Le et al. 2018)
Some of the results follow. These are noisy estimates, calculated here from bound and input reads.

Biological target: T1, Pho4 (S. cerevisiae) (UniProt P07270)
T1 sequence: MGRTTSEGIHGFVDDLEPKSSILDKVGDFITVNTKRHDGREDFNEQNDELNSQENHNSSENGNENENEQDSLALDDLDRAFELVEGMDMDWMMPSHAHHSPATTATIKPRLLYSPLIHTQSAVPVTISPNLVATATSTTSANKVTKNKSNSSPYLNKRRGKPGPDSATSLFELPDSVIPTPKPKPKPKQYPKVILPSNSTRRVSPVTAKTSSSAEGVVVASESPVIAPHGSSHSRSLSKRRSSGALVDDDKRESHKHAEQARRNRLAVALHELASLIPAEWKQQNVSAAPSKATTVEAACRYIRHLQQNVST
Experiment: relative binding free energy (BET-seq); higher = weaker binding
Conditions: reference: library average

Sequence	relative binding free energy [kcal/mol]
AGAAACACGTGGAGGG	-0.15
TCAGGCACGTGAGATG	0.13
GGGCACACGTGGGCAT	0.1
TAGAACACGTGTGCGG	0.2
CTAGTCACGTGTGGTC	0.22
AGTTGCACGTGCTAAG	0.07
TAGCACACGTGTGGTG	-0.07
AGAGTCACGTGATCGG	0.24
AAGGTCACGTGTGCTT	0.09
GGTAACACGTGGGAGT	0
GATGGCACGTGGGCGC	-0.14
AATAACACGTGGGTTG	-0.2
GCTGGCACGTGATGTT	-0.02
GTTTGCACGTGAGTAA	0.21
TAAGCCACGTGAGGTG	0.16
CGTAGCACGTGGTAAT	-0.12
TATGCCACGTGTCGGG	-0.09
TGTTTCACGTGTCTGT	0.34
GGTCTCACGTGTTTTA	0.21
GTAGGCACGTGAGTTC	0.32
CTCGGCACGTGGTGTA	-0.15
TGTATCACGTGAGTAT	0.25
CGTCACACGTGTGGTT	0.16
CGGTTCACGTGGGGGT	0.28
TGGTTCACGTGAGGGC	0.42
GTGAACACGTGAGGCG	0.32

Sequence	relative binding free energy [kcal/mol]
TTGTTCACGTGTCGAT	0.29
TGTGACACGTGGATTG	-0.09
TTTATCACGTGAGTAA	0.38
ACGTTCACGTGAAGAG	0.67
CGGTTCACGTGCAGGT	0.1
ATGTGCACGTGGAAGG	0.05
TGTGGCACGTGGGTGC	-0.21
AGAAGCACGTGGTAAT	-0.06
TATTTCACGTGACGGT	0.35
GGGGACACGTGTACTG	0
AGGTGCACGTGTGTCG	-0.03
TTCGACACGTGGAGGT	0.01
CGGAGCACGTGGTAAG	-0.03
GGATGCACGTGCGCGG	-0.25
CGGGACACGTGTGTGT	-0.02
TGACTCACGTGTGGCG	0.19
ATATTCACGTGCGGGG	0.12
TAACTCACGTGATGTG	0.33
AGTGGCACGTGCGCGT	-0.3
GGGTCCACGTGGGTTA	0.01
AGTTACACGTGGTAGA	0.06
TTTTGCACGTGATTGA	0.03
TTGTCCACGTGTGATT	0.05
ATCGGCACGTGAAGTG	0.13
CGGGCCACGTGTGTTT	0.03
GTAAGCACGTGTATAT	0.01

Sequence	relative binding free energy [kcal/mol]
TTTGGCACGTGTTCGT	-0.12
ACGGTCACGTGGGGGC	-0.11
GTTATCACGTGTATTG	0.04
GGGAGCACGTGCGTGT	-0.16
GTAGTCACGTGGTTGA	0.13
ATTTGCACGTGCGTTG	-0.12
ATTATCACGTGTGGAA	0.2
ATTTCCACGTGAAGTT	0.45
GTGGTCACGTGACGTG	0.23
AGAGGCACGTGTTACT	0
AGAGGCACGTGGTGCT	-0.23
AGATGCACGTGTACGT	-0.03
GGTCTCACGTGAGTGG	0.41
GTTTTCACGTGATAGT	0.4
TGGTGCACGTGCGTTT	0
CGTTGCACGTGTGTCT	0.01
GTATTCACGTGTGCAA	0.24
TGGGACACGTGATTTT	0.12
GCAGTCACGTGGAGGA	0.14
TTTATCACGTGACGGG	0.17
TCTGACACGTGGTATT	0
AAAGGCACGTGTGATG	0.02
AATTTCACGTGTGTTA	0.21
AGTCGCACGTGGTAGA	-0.05
CAGTCCACGTGGGGGT	-0.17
GGTAGCACGTGCGGTT	0.04

Sequence	relative binding free energy [kcal/mol]
AGTGCCACGTGATTGG	0.05
TGGAGCACGTGAGTGT	0.12
CTGTGCACGTGAGGGT	0.14
TTGTGCACGTGGAATA	-0.05
TGCGGCACGTGATAGG	0.07
CCTTTCACGTGTTAGG	0.34
GGTATCACGTGGTTAT	0.13
TTGTGCACGTGAATTG	0.39
TCTTGCACGTGACGGT	0.15
GTATTCACGTGGAATT	0.33
TGACTCACGTGATGTT	0.24
CGTGGCACGTGGATCT	0
TTGCGCACGTGTATGG	-0.1
CTGTACACGTGGGGTT	-0.15
TAGGCCACGTGGTTTA	-0.13
TGTGTCACGTGTTGTT	0.22
AAGGTCACGTGTTCTT	0.01
TAATTCACGTGAAATT	0.28
TTAGTCACGTGTATAC	0.07
TTATTCACGTGAGGGC	0.3
TTTGGCACGTGGCTGG	-0.08
TTGTGCACGTGTGACT	0.05
CTTTTCACGTGGGGTA	0.1
TGAATCACGTGAGTGC	0.31
ACAAGCACGTGTAGGT	0.02
TTTGACACGTGCAGGT	-0.1

Sequence	relative binding free energy [kcal/mol]
TGTTTCACGTGGAGGA	0.31
TGTGTCACGTGTTGTG	0.16
GGGTGCACGTGTCGCT	-0.04
AACCGCACGTGGTGGG	-0.11
TGAGTCACGTGGTTCT	0.13
TGATACACGTGGCGGC	0.03
AAGTACACGTGTGGGC	0.04
TTGAACACGTGATTAT	0.19
GAGGGCACGTGGAGTG	-0.09
ACTGGCACGTGGTGAA	-0.12
CATGTCACGTGTGCGG	-0.05
TGGGACACGTGTAGAT	0.26
ACTTTCACGTGGGTAA	0.27
AGTGACACGTGAATTT	0.26
AGACTCACGTGTGTTA	0.24
AGGGACACGTGGGAGA	-0.08
GTCACCACGTGTGGTG	-0.05
CGTTGCACGTGCTGTG	-0.01
CTAGTCACGTGGGGGA	0
GTAATCACGTGTGTGG	0.2
AGGGGCACGTGATTCA	0.03
TGGCGCACGTGTGGAG	0.04
GGCCTCACGTGTTGGT	0.19
TGGCGCACGTGGGATA	-0.14
GAAGGCACGTGTGGTT	-0.03
GTGTCCACGTGTGAGT	0.16

Sequence	relative binding free energy [kcal/mol]
TTGAGCACGTGTTTGC	-0.05
CGGTACACGTGGTATG	-0.04
TTATGCACGTGCTCTT	-0.09
TATAGCACGTGACGTT	0.25
TTAAACACGTGCTTGT	-0.01
TATGGCACGTGCCGGT	-0.16
TTATTCACGTGGGGGT	0.1
ATTCGCACGTGAAGTG	0.12
GATGTCACGTGTCATG	0.28
AAGTGCACGTGTGGAG	-0.02
GTGCGCACGTGTTAGT	-0.08
CTGTTCACGTGGTGAG	0.17
TGTATCACGTGTGGTA	0.16
GTTGGCACGTGGCACG	-0.29
ATTAGCACGTGGGTAG	-0.18
AGTGTCACGTGCTGCG	-0.1
TTTTTCACGTGGACTA	0.32
TCTTTCACGTGTGGTT	0.35
TAGATCACGTGAAGTT	0.31
ATTTTCACGTGTTCAG	0.07
TGAAGCACGTGGTCAA	-0.02
ATTTTCACGTGAGATG	0.35
AGTGTCACGTGAAAGA	0.18
GGGGACACGTGGTGGC	0.03
TAAATCACGTGCTGGT	0.05
CTTGTCACGTGGTGGC	0.09

Sequence	relative binding free energy [kcal/mol]
ATGGCCACGTGGTAGT	-0.03
CATGGCACGTGAGATG	0.1
GTCGTCACGTGAGGAA	0.33
TTATTCACGTGCTTTG	0.26
TAATACACGTGATGTT	0.05
TGCGGCACGTGAGCTG	0.07
GGTAACACGTGTTGTT	0.06
GGAGGCACGTGGGAGA	-0.17
ATTTGCACGTGCTTTA	-0.16
CCTTTCACGTGCGGGT	0.27
GTTGACACGTGTGGTT	0.11
TGTTGCACGTGGTCGC	-0.2
GCTGGCACGTGCTGTT	-0.09
ATTTACACGTGGTGTC	0.13
GTGTCCACGTGGATTT	0.02
CTGGTCACGTGGGTTA	0.02
GGTTTCACGTGTTAGC	0.33
GAGTACACGTGTATTG	0.02
TGGCACACGTGTAAGG	0.12
CGAATCACGTGATGTT	0.27
GTTGGCACGTGGTATA	-0.24
GTTTTCACGTGGGATT	0.26
GCTTTCACGTGGGTGT	0.11
GTATGCACGTGGAATG	0.07
GGGTTCACGTGCCGTT	0.38
TTGAGCACGTGTAGAT	0.07

Sequence	relative binding free energy [kcal/mol]
CTGGACACGTGGATGG	0.07
GGTAGCACGTGTTGAG	0.02
GATCGCACGTGGGTAG	-0.12
CTGAGCACGTGATGGT	0.18
GTATCCACGTGTTGTA	0.11
TGCAGCACGTGTTTGT	0
GGCATCACGTGCTGGG	0.05
AGGGTCACGTGCGAGG	0.17
GCATTCACGTGGGGTC	0.16
TGTCTCACGTGGATGT	0.2
TGTCGCACGTGTTGTG	-0.01
TGTGTCACGTGGATCA	-0.02
GAAGGCACGTGGTCAT	-0.09
AGTCGCACGTGGGAAG	-0.19
TTGCTCACGTGTCGGG	0.22
AGTGTCACGTGGCACG	-0.09
CGGTTCACGTGGATAT	0.26
TTAGTCACGTGCTATA	-0.11
GAGTACACGTGATGTA	0.32
TAGATCACGTGAGGCG	0.32
GTAGTCACGTGGGTCG	0.12
CGTTTCACGTGTTGGG	0.25
TTTTCCACGTGTCGTA	0.17
GACAACACGTGTGGGG	0.1
TGGTCCACGTGTTGGT	-0.02
GGGGTCACGTGGGCTG	0.01

Sequence	relative binding free energy [kcal/mol]
GCGTACACGTGGTGTC	0.13
TGTGTCACGTGATGTT	0.2
TTGGTCACGTGCGGTA	0.09
TGAATCACGTGTGATG	0.14
CTTGACACGTGTGTGT	-0.02
TGTTGCACGTGGAATC	0.08
CTTTTCACGTGTAGGG	0.3
AACTTCACGTGTTTTT	0.19
TCTTGCACGTGCGTGT	-0.11
TGTTCCACGTGTTCGT	0.06
GATCACACGTGTTTGG	0.18
ATATCCACGTGTGATT	0.1
GGATCCACGTGAGTGG	0.26
GGTCGCACGTGGGGTC	-0.11
GGGGGCACGTGTGCTG	-0.05
TTTAGCACGTGGTCCT	-0.12
CGGTACACGTGGGGTG	-0.1
TAAGGCACGTGGATGT	-0.11
TCGTGCACGTGGTGGT	-0.12
TTAGACACGTGAGTAT	0.13
GGGTTCACGTGTTCAT	0.32
ATTCTCACGTGAGTGA	0.39
